# Read counts are not given, so values of variants with three or more changes are uncertain.
# B1: LINE1-mini (parent)
# chain: GGCAGAGCUCAACACAGCGUGGCAAAGUGGCUGUGGCUAGACUGCC
# Variants of: B1
# Assay: self-cleavage, relative activity (ratio to wild type); higher = more cleavage; in vitro, sequencing; the parent is a self-cleaving ribozyme
row,Variant,self-cleavage
1,G2A A11G G21U G29U G40U,0.01
2,G2A A4U C10A C31A,0.16
3,G2A C8A G17A G19U A26G C42U G44A,0.1
4,G2A A4U G40U,0.27
5,G1U U9A A39G,0
6,G2A A12G C45U,0.01
7,G2A A16G C18G,0.12
8,G2A C8A U20A C45A,0.42
9,G2A A14C U32C G36C,0.28
10,G2A C3A U20A G21U A25C U32A,0.15
11,G2A C3A C8U C42A,0.62
12,G1U U9G G19U,0.01
13,G1U G27U U32C G35U G40C,0.03
14,G2A A6U C8A U32A C37G G40U C42U G44U,0.22
15,G2A C3U C8U G19A G22U C42U C46A,1.57
16,G2A C3A U9A C18U G35A,0.18
17,G2A C8U G40A,0.39
18,G1U G33U G36U A41C,0.02
19,G2A A14C C15U,0.04
20,G1U U9A A16C G30U A41C,0.03
21,G2A A4C A11U A12G A16U G17C C31A,0.01
22,G1U U20G A24U G36U,0.04
23,G2A A14U G30U G40U,0.02
24,G2A A12U A16C C37A,0.16

row,Variant,self-cleavage
1,G2A C3G U9A,1.37
2,G1U U28G C45G,0.2
3,G2A C3A A11C U32C A41C G44C,0.02
4,G2A A16U G22C,0.2
5,G2A C3U A6C U34C U38A,0.16
6,G1U U32A C42G,0.09
7,G2A A6C U43G,0.12
8,G2A A6C A11C U34A,0
9,G1U U20G U28G,0.15
10,G2A A6U C8A,0.26
11,G2A A14G G17C G21C,0.06
12,G2A A11G C23U G29C U38A,0.03
13,G2A A16C U38C,0.18
14,G2A C3A U43C,0.28
15,G1U U9G C15A C18U,0.07
16,G2A C8G C10U,0.1
17,G2A A12U G35U,0.05
18,G2A A6U G33A,0.11
19,G2A C8A G19A,0.33
20,G2A A4G C23U U43C,0.39
21,G2A C8A G29U U34A C37U G44A,0.15
22,G2A A11C G22C,0.03
23,G2A A4C C8U A11U A24U,0.03
24,G2A A41C U43A,0.23

row,Variant,self-cleavage
1,G2A A24C C45U,0.22
2,G1U U20G G35A,0.02
3,G2A A16U U38C,0.52
4,G2A A26C G40U G44C,0.01
5,G2A A11U A14C G36U,0.06
6,G2A A4G C15U A26U G29A G40C,0.6
7,G2A C8A G44C,0.69
8,G2A A6G A24U G33C C37A,0.03
9,G2A A6G U9G,0.05
10,G2A A6C A12C G33C G36A,0.01
11,G2A A16G U20A G27U,0.1
12,G1U G29U G30C C37G G40C,0.06
13,G2A A14G C15G C23U A25C,0.02
14,G2A A6C A14U G33U C46U,0.13
15,G1U U28C G33U,0.02
16,G2A C8G A12U G27C U43A C46A,0.04
17,G2A A6G G19U G36C,0.16
18,G2A A11U G21A G30C U34C C46G,0.03
19,G1U U9G A14U G17A C31A G40U C45G,0.03
20,G1U U9A C13G A25G G30U G36C C37U,0
21,G2A A12C C31A U34C,0.05
22,G2A A14G C18U G22C A24U G35A U38G,0.37
23,G2A A6G C23A,0.12
24,G1U G29C G36U,0.03

row,Variant,self-cleavage
1,G1U U9G G17C C18A G27U,0.02
2,G2A A14C A24C,0.08
3,G2A A6C G19A U38G,0.06
4,G2A A12U C13A C23U,0.52
5,G2A A12U G27U G40C,0.14
6,G2A A6G U34A,0.05
7,G2A A12C G29A G36U,0.02
8,G2A C8G A26U,0.1
9,G1U G30A G35U,0.03
10,G1U G33A G44C,0.05
11,G2A C3G G5A G7U U28A U34G G36U,0.21
12,G1U U9A C13U C15A U20C A24C,0.01
13,G2A C10A A12G A16U,0.03
14,G2A A14G G19C G33C G44C,0.01
15,G2A A4U G5A A11U C13A C45G,0.05
16,G2A A26U G27U C42U,0
17,G2A A25G G35U,1.03
18,G2A A16U A25U,0.31
19,G2A A16G G22U C23A G29U,0.14
20,G2A A26C C42A U43C,0.44
21,G2A A6C G35C A41U,0.06
22,G2A A12G G29U C31U,0.31
23,G2A C8G A24C U34G G44A,0.02
24,G2A A16U A24U,0.17

row,Variant,self-cleavage
1,G2A A11C U34C,0.06
2,G1U U20G U28G G30U C31A G35A C42A,0.03
3,G1U U20C G36U,0.03
4,G2A C3U A26G C45A,0.1
5,G2A A11U C45A,0.04
6,G2A C3G A4G,0.21
7,G1U G36U C45A,0.04
8,G1U G30A A41C C42G,0.03
9,G2A A11U C37A C46U,0
10,G2A A12C C13U,0.03
11,G2A C3A C10G A39U,0.03
12,G1U G36A A39G,0.02
13,G2A A4G A6U,0.3
14,G1U G30C G33A G35C,0.02
15,G2A C8A C15G A24G C31G,0.04
16,G2A C3G G29A,0.06
17,G2A C3G G29U,0.94
18,G2A C3A C8A C10A A26U,0.08
19,G2A A25G C37U,0.22
20,G2A A6C G29A C37G A41U C45A,0.31
21,G2A A4G C13U G36C,0.05
22,G2A A14U U20A G44U,0.23
23,G2A C3U G29C C37A C46A,0.41
24,G2A C8A G21U C31U,0.31

row,Variant,self-cleavage
1,G2A C10A A26U G40U,0.03
2,G2A A4G G29U,0.63
3,G2A A11C C13A G22A A39C C45G,0.01
4,G2A C8U A26C G30A,0.71
5,G2A A6G A11G C13U A14U C15G,0.01
6,G1U G30U G44C,0.33
7,G2A A12G A16C G17U U32C G36C,0.07
8,G2A A4C G19A U20G U34G G44U,0.01
9,G2A A6U C13A G30C C37G,0.06
10,G2A A6G G21C A24G G29A G30A,0.07
11,G1U U9C U28A,0.02
12,G2A A4U G29A G33U A41G,0.66
13,G1U U20A C31A U38A,0
14,G1U U9A G22C,0.03
15,G2A A14U G33A U34A,0.3
16,G2A A11U G44U,0.12
17,G1U G30C U43G,0.66
18,G2A A11G C31G G36C,0.03
19,G2A C8G C42U,0.04
20,G2A C3G A4G G19A G21A G35C G36U,0.03
21,G2A A26U G30A C42U,0
22,G2A C8G C15G C18A G19C,0.02
23,G1U U34A C42A C45U,0.01
24,G2A A12G A16G C23G,0.03

row,Variant,self-cleavage
1,G2A A11C G19A G30U,0.12
2,G2A A4U G29A G33U G36A A41U,0.06
3,G2A A26U U34C G36A C46U,0.07
4,G2A A6C C15U C23U C37U A41G,0.09
5,G2A A11U C18A G19U U32G G33C,0.04
6,G1U G29U U34G,0.05
7,G2A C3U A16U G19C U28G G36U,0.25
8,G2A C3U G19A C23U A26U G29U C37A,0.94
9,G2A A14G C31G G35C G44A,0.08
10,G1U U9A G44U,0.05
11,G2A C3A A11G A14U,0.12
12,G2A A26U G27U G29A,0.17
13,G2A A25G A39U,0.67
14,G2A A24U C31A G44A,0.26
15,G2A A4C C8U U38A C42G,0.11
16,G2A C8U A39C,0.18
17,G2A A11C C42G,0
18,G2A A4U A16U C46A,0
19,G1U G30A U34A,0.09
20,G2A A12C A25U,0.16
21,G2A C3G U9G C31U U38A G40U,0.06
22,G1U U28G C31A U38A,0.1
23,G1U U20G C37A,0.03

# Reference: the RNAGym collection of RNA variant scans (doi:10.7554/elife.90254)
